Test results: the DeepSol protein solubility set

Experiment: soluble on expression in E. coli; label from the status in PepcDB or PDB records

Sequence: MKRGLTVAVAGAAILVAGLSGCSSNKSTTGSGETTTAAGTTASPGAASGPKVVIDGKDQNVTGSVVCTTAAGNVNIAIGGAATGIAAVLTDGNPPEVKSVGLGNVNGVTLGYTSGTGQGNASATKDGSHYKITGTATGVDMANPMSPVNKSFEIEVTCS
- soluble on expression in E. coli: soluble
